Experimental data as given in paper PMC5700166.
The list shows a part of the results, in another mix than the full data. The list includes weakly bound sequences.

Columns and labels:
Assay in all cases: protein-binding microarray (PBM)
Conditions in all cases: PBM: ~300 nM protein, 6 mM HEPES pH 7.8, 80 mM KCl, 0.5 mM EDTA, 0.5 mM EGTA, 6% glycerol, 35 ng/ul poly-dIdC, 1% milk, 1 h, room temperature; Ap Aiptasia and Nv Nematostella (sea anemones) / Co Capsaspora / Aq Amphimedon (sponge) / Dm Drosophila / Hu human; RHD is the Rel homology domain; high values mean tight binding; most listed sequences are background and not binding sites; double strand, one strand shown
GST-Ap-NF-kB RHD = molecular target: T1, GST-Ap-NF-kB RHD (UniProt A0A913YAJ5)
T1 sequence: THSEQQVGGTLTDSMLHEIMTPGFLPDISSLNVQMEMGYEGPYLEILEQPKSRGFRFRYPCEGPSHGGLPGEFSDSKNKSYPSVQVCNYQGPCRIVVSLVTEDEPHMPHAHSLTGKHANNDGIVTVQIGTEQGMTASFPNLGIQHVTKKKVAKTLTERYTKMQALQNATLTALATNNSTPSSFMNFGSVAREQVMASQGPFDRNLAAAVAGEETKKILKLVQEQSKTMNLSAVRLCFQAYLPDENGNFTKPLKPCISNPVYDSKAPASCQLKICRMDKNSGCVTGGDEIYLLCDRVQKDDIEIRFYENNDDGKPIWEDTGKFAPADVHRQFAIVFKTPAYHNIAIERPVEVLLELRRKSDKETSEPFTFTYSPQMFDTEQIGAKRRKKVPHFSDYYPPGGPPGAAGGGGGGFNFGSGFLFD

[1] = molecular target: T2, GST-Nv-NF-kB (Cys allele) (UniProt E5G601)
T2 sequence: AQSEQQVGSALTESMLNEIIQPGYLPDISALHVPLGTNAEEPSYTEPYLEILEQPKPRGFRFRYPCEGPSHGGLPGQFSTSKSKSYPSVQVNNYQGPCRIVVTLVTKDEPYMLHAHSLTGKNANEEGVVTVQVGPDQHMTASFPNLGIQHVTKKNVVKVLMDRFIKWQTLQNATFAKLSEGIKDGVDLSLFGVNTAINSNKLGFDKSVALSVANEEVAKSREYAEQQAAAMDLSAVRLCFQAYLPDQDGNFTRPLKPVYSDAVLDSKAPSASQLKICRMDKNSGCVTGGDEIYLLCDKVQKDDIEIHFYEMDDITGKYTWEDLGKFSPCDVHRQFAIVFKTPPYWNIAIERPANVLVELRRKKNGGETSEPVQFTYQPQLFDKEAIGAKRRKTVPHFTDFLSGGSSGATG

GST-Co-NF-kB = molecular target: T3, GST-Co-NF-kB (UniProt F1ARL5)
T3 sequence: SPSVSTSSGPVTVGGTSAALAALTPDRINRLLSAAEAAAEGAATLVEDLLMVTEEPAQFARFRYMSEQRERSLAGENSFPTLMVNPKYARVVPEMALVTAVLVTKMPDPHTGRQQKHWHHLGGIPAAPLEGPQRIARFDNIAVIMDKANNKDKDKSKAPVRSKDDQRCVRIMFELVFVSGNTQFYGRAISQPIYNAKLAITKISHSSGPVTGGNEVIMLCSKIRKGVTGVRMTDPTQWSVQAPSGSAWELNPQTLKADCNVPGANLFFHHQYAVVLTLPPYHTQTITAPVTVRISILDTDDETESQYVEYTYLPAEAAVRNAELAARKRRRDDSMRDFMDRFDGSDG

GST-Dm-Relish = molecular target: T4, GST-Dm-Relish (UniProt Q94527)
T4 sequence: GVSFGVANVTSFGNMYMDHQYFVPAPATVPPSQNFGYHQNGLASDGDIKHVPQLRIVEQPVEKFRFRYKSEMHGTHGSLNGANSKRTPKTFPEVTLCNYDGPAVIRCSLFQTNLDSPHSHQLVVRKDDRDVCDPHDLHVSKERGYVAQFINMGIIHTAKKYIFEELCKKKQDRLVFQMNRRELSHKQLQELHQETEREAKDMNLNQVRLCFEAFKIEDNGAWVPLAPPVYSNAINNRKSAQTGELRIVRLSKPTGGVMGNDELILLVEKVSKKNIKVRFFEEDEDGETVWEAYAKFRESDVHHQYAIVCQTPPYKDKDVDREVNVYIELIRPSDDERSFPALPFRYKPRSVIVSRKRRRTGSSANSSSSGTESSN

GST-Aq-NF-kB = molecular target: T5, GST-Aq-NF-kB (UniProt A9Y5G7)
T5 sequence: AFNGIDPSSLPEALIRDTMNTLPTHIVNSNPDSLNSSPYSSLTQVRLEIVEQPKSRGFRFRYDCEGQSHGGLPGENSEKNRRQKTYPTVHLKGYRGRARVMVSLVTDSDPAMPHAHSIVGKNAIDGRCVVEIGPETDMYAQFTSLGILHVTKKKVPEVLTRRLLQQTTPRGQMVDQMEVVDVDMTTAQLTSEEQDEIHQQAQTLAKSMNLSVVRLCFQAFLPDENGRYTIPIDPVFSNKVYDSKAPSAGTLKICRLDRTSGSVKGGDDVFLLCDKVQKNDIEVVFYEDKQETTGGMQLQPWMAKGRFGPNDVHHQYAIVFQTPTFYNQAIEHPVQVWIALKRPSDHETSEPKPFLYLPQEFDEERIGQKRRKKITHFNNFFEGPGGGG

Sequence | binding signal (GST-Ap-NF-kB RHD) [z-score] | binding signal [1] [z-score] | binding signal (GST-Co-NF-kB) [z-score] | binding signal (GST-Dm-Relish) [z-score] | binding signal (GST-Aq-NF-kB) [z-score]
CCGATTAACATCATTATTTCTTATGATGTTAATCGGGTCTTGATTCGCTTGACGCTGCTG | -0.957 | 0.0844 | -0.287 | -0.199 | -0.228
CCGATTAACATCAAACGCCCATCTGATGTTAATCGGGTCTTGATTCGCTTGACGCTGCTG | -0.279 | -0.165 | -0.298 | -0.546 | -0.29
CCGATTAACATCACTGACGCAGTTGATGTTAATCGGGTCTTGATTCGCTTGACGCTGCTG | -0.937 | -0.531 | -1.29 | -0.591 | -0.588
CCGATTAACATCAAGGAATATCCTGATGTTAATCGGGTCTTGATTCGCTTGACGCTGCTG | -0.456 | -0.142 | -0.287 | 0.765 | 0.978
CCGATTAACATCAGTAGTAGCCCTGATGTTAATCGGGTCTTGATTCGCTTGACGCTGCTG | -0.0294 | -0.211 | -0.374 | -0.335 | 0.013
CCGATTAACATCAGCTTCGAGTCTGATGTTAATCGGGTCTTGATTCGCTTGACGCTGCTG | -0.336 | -0.781 | -1.18 | -1.28 | -0.679
CCGATTAACATCAGCGCCAGAGATGATGTTAATCGGGTCTTGATTCGCTTGACGCTGCTG | -0.133 | -1.06 | -1.33 | -1.18 | -0.455
CCGATTAACATCACTGCGAAAAGTGATGTTAATCGGGTCTTGATTCGCTTGACGCTGCTG | -0.735 | 0.0805 | -0.87 | 0.777 | -0.565
CCGATTAACATCAGCGCGGAACCTGATGTTAATCGGGTCTTGATTCGCTTGACGCTGCTG | -0.0723 | -1.36 | -0.572 | -0.546 | -0.515
CCGATTAACATCACTAGGGTGCATGATGTTAATCGGGTCTTGATTCGCTTGACGCTGCTG | 0.41 | 0.349 | 0.907 | 0.183 | 0.0272
CCGATTAACATCAGGCTAGGCTTTGATGTTAATCGGGTCTTGATTCGCTTGACGCTGCTG | -0.453 | -1.02 | -1.27 | -1.49 | -0.716
CCGATTAACATCAGGCCCTCCACTGATGTTAATCGGGTCTTGATTCGCTTGACGCTGCTG | 0.413 | -0.486 | -0.767 | 0.0521 | 0.395
CCGATTAACATCAATTCCGGCGCTGATGTTAATCGGGTCTTGATTCGCTTGACGCTGCTG | -0.109 | -0.319 | 0.0663 | -0.282 | -0.19
CCGATTAACATCAGGAAGTTCCATGATGTTAATCGGGTCTTGATTCGCTTGACGCTGCTG | -0.0938 | 0.00627 | -0.292 | 0.562 | 1.48
